This note sets out measurements from the RNAGym collection of RNA variant scans (doi:10.1093/nar/gkz1192).

To fix the notation:
B1: CPEB3 Ribozyme (parent)
chain: UAACAGGGGGCCACAGCAGAAGCGUUCACGUCGCAGCCCCUGUCAGAUUCUGGUGAAUCUGCGAAUUCUGCUGUAUAUCUC

The source gives no read counts; variants with many changes may rest on few reads.

Variants of B1 are the subject of this data set. Description: self-cleavage, relative activity (ratio to wild type); higher = more cleavage; in vitro, sequencing. In a few lines: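 After error-prone PCR and barcoding, CPEB3 ribozyme mutant libraries were transcribed with T7 RNA polymerase at 37°C for 5 hours, then given 15 min with DNase I before an EDTA stop, and they cleaved during both steps. Reverse transcription with template switching preceded Illumina sequencing. Relative activity divides a variant's cleaved/total read fraction by the unmutated ribozyme's. At least 5 reads were required per variant, and three batches were averaged.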
On to G30A A45G U54G U66C, for which the self-cleavage stood at 0.07. With G30U U51C U76A, the self-cleavage was found to be 0.21. The same measure for G30U C44G U66C: 0.12.

In the case of G30A C40A U51C, the self-cleavage is 0.13. The same measure for C29U A57G U67C: 0.15; for G30A U43C A56U U72C: 0.24; for G30A G36A U41C U51C U72A: 0.1. Next, U31A A35U A45G: 0.08; G30U A45G A64G: 0.17; C29U G63U U80C: 0.69.

On to G30A U72C U74C, for which the self-cleavage was 0.1. The same measure for G30U C34U A35G A47G: 0.07. For G30A U48C U51C, the self-cleavage amounted to 0.26. Next, C29G U54C U80A: 0.05. Next, G30A A35U U48C U54A A57G U58A: 0.08; C29U C34A U60A: 0.05; C29U U31A U76A: 0.21. Next, C29U U31C A56U G73A: 0.12; U31A A35G A45U U51A A56U C81U: 0.26; G30A A56C U74A: 0.09.

With G30C U51A U69A, the self-cleavage was found to be 0.26. On to G30A U31C A75U U78C, for which the self-cleavage worked out at 0.21.

Consider G30A A45U A64G, for which the self-cleavage worked out at 0.19.

As to U31A A35U A45G U54C, the self-cleavage is 0.11. Next, G30A C37U U43C: 0.16. The same measure for U31A A35U A45G U60C U72C: 0.22. Take C29U A45U U60C A65G U67C U72C: the self-cleavage was found to be 0.11.

Take C29U A35G A77G: the self-cleavage is 1.25. The same measure for G30A A56G A64G: 0.17; for C29U G33A U49C: 0.05; for G30C G46C A57U G63A: 0.14. The same measure for G30A U31C C38G C59A: 0.12; for G30A A45C U69C: 0.12; for C29U U43C C44U: 0.23.

For the variant G30C U31C U60A, the self-cleavage is 0.22.

Consider U31A A35U U58C U60C U69A, for which the self-cleavage worked out at 0.07.

In the case of G30C U54A U67A, the self-cleavage turned out to be 0.18.

On to G30C A45C U51C U54A U74A, for which the self-cleavage is 0.08.

As to U31A A35G A45C U78A, the self-cleavage was determined as 0.54. The same measure for G30A U31A U54C U67C: 0.09. The same measure for G30C U31C U58C U80C: 0.2.

On to C29U A65G U67A U78C, for which the self-cleavage came out at 0.11. Next, G30U U49C A57G U58C A65G: 0.12. Next, G30A U49C A56G U60C: 0.56; G30C A45U U51C U58A U72C: 0.29. The same measure for C29U G63A A65G U69A: 0.17. Turning to G30A A45G A57U U80C, the self-cleavage came out at 0.07. The same measure for C29U U43C A56U: 0.17; for G30A C71A U72C U74C: 0.06. The same measure for C29U A45G U51C U69C: 0.08. Next, C29U A35U U80G: 0.19; G30A A35G U72A: 0.11; C29U G33A U43C U51A U66C: 0.14. Turning to C29U C34U A45U U58C U67C, the self-cleavage is 0.1. In the case of U31A A45G A56U U80C, the self-cleavage came out at 0.22.

For G30U C38A U60C A65U, the self-cleavage came to 0.08.

Turning to C29G U49C U51A U69C, the self-cleavage came out at 0.15.

For G30A A45G U54A U67C U72C, the self-cleavage was 0.11. Next, C29U U58C U74C U76C: 0.58; C29U A35U A64U: 0.21; G30C U31C U66C: 0.18. The same measure for C29U U43G U48C: 0.22; for G30A A35U U67C U69C: 0.06; for G30A U69C U72G: 0.06. On to C29U C39G A64U U67C, for which the self-cleavage worked out at 0.07. Consider G30U G42C U49C G52A, for which the self-cleavage is 0.2. On to G30A U43C G52U A65G C79U, for which the self-cleavage was found to be 0.08. Next, G30U U76C A77G: 0.11. For the variant C29U A35G C39U U66A, the self-cleavage was found to be 0.62. Turning to G30A U51G A64U A65G, the self-cleavage worked out at 0.22. Turning to C29U U43C U66A U69A, the self-cleavage amounted to 0.04. As to G30A C38A A65C, the self-cleavage came out at 0.12.

As for C29U A45G C71U U72C A75G, the self-cleavage came out at 0.07. The same measure for G30A U31A C40A U41C: 0.43.

On to G30A U31A U80A, for which the self-cleavage turned out to be 0.42. As for C29U U31C U41A U48A A56G, the self-cleavage was 0.17. Consider G30A C38A U41A A56U, for which the self-cleavage worked out at 0.12. The same measure for C29G U58C A65G U69C U76C: 0.18; for C29U U41A U48C U58C G61A: 0.08. The same measure for C29U A35U U41C: 0.23; for C29U U31C A35G A45C: 0.13. Next, C29G U48C U69C U72A U80A: 0.04. As for U31A A35G U69C, the self-cleavage came to 0.76.
